Reference: the supplement of paper PMC7826260
Some of the results follow. Each Rep nickase domain was tested in vitro on the same pool of single strands for 1 h at 37 °C with 3 µM enzyme; only the middle of the 90-letter strands is printed. Numbers give uncut DNA relative to the enzyme-free pool, as log2; the lower, the more was cut; hits are not called. Because reads are shares of a total, they shift together; where an enzyme cuts many sequences, the uncut ones exceed 0.

test system: T1, Rep nickase domain of maize striate mosaic virus; experiment: uncleaved DNA left, log2 of reads against the no-enzyme library (log2 ratio); higher = less cleavage (more negative = more Rep cleavage of the k-mer); sequences stand for … in CTCGTCCG…ACCGGAGA
T1 sequence (protein, residues 1-117, tag omitted): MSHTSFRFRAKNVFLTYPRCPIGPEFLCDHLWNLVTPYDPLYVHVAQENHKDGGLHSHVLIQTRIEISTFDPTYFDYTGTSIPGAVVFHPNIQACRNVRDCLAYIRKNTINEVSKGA
Method: (§1)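 A pool of 90-nt single-stranded DNAs with seven random bases just before the constant AC of the nick site (name = the seven bases) was cut by 3 µM recombinant His6-SUMO-tagged Rep nickase domain (300 nM DNA, 50 mM HEPES pH 8.0, 50 mM NaCl, 1 mM MnCl2, 1 h, 37 °C, three replicates). Uncut DNA was amplified and sequenced.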

Sequence | uncleaved DNA left (log2)
CTAATCG | -0.989
CTGGATT | 1.57
ATTACGA | -1.06
CAGACAT | 2.07
GCGAGGA | 0.684
CCACTTC | -0.803
TGACTAC | 0.904
GGCACAT | 2.36
ATCCGCC | -0.789
GTAGCTC | 1.34
CAAAACA | -0.926
GCATTAC | -0.441
ATTCTCA | -0.422
AATTTCA | -0.814
ACAAGAT | -0.147
GACTCAT | 1.23
TGACGAA | 0.352
TCAGTCA | -0.461
TGCGCAC | -0.383
AAGGCTT | 1.5

Sequence | uncleaved DNA left (log2)
CTAGTCG | -1.22
GCGCGCG | -0.472
TGAAACA | 1.16
TGCTGAA | 0.725
CAATAAC | -1.09
TTGCACT | -1.07
GTCGGGG | 1.67
ACACGCG | 1.89
GTTCCGC | 0.559
AATTTAA | -0.794
ATGATTG | -0.167
CGGATGA | 1.39
TAGCTTG | 0.668
GTCGTAA | 1.87
CCGGACA | 1.75
TGTTCCA | 0.818
GCACGCT | -0.726
ACAATGG | -1.13
TCGGATA | 1.36
CCCGCCT | -0.613

test system: T2, Rep nickase domain of porcine circovirus 2; experiment: as above
T2 sequence (protein, residues 2-116, tag omitted): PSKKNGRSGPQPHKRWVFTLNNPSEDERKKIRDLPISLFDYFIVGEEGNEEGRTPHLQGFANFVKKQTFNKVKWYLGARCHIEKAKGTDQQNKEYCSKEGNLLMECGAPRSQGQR
Method: as §1

Sequence | uncleaved DNA left (log2)
CTAATCG | 0.159
CTGGATT | -0.0528
ATTACGA | 0.029
CAGACAT | -0.584
GCGAGGA | 0.0189
CCACTTC | 0.0569
TGACTAC | 0.0338
GGCACAT | 0.25
ATCCGCC | 0.149
GTAGCTC | -0.00185
CAAAACA | 0.0509
GCATTAC | 0.0498
ATTCTCA | -0.182
AATTTCA | -2.95
ACAAGAT | 0.15
GACTCAT | -2.76
TGACGAA | -0.197
TCAGTCA | 0.119
TGCGCAC | -0.0189
AAGGCTT | -1.88

Sequence | uncleaved DNA left (log2)
CTAGTCG | 0.0694
GCGCGCG | 0.18
TGAAACA | 0.0165
TGCTGAA | 0.0417
CAATAAC | 0.11
TTGCACT | -0.171
GTCGGGG | 0.181
ACACGCG | 0.127
GTTCCGC | 0.0814
AATTTAA | -0.864
ATGATTG | 0.092
CGGATGA | 0.0974
TAGCTTG | -0.00867
GTCGTAA | 0.141
CCGGACA | -0.0873
TGTTCCA | -0.0747
GCACGCT | 0.0288
ACAATGG | 0.184
TCGGATA | 0.00816
CCCGCCT | -0.305

test system: T3, Rep nickase domain of tomato golden mosaic virus; experiment: as above
T3 sequence (protein, residues 1-124, tag omitted): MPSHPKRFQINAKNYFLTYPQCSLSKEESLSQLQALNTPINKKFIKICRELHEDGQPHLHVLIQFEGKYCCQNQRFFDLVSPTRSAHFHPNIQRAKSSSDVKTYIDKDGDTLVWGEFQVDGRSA
Method: as §1

Sequence | uncleaved DNA left (log2)
CTAATCG | 0.0267
CTGGATT | 0.177
ATTACGA | -0.0766
CAGACAT | -0.0203
GCGAGGA | -0.0417
CCACTTC | -0.0976
TGACTAC | -0.00154
GGCACAT | 0.0658
ATCCGCC | -0.091
GTAGCTC | 0.00438
CAAAACA | 0.00873
GCATTAC | -0.028
ATTCTCA | 0.0498
AATTTCA | -0.0852
ACAAGAT | 0.099
GACTCAT | -0.0438
TGACGAA | 0.0424
TCAGTCA | -0.014
TGCGCAC | -0.0084
AAGGCTT | 0.173

Sequence | uncleaved DNA left (log2)
CTAGTCG | -0.159
GCGCGCG | -0.0972
TGAAACA | 0.00961
TGCTGAA | 0.0507
CAATAAC | -0.0927
TTGCACT | -0.233
GTCGGGG | 0.176
ACACGCG | 0.00044
GTTCCGC | 0.0557
AATTTAA | 0.00536
ATGATTG | 0.0172
CGGATGA | 0.0215
TAGCTTG | -0.104
GTCGTAA | 0.124
CCGGACA | -0.0313
TGTTCCA | -0.0857
GCACGCT | -0.0806
ACAATGG | 0.0428
TCGGATA | 0.0527
CCCGCCT | -0.0977
